88 compounds from paper PMC4336329 (PLoS ONE, 2015) can be followed below.

Molecules are shown by their SMILES. The campaign covered roughly 310,000 compounds. About 14,000 (4.5%) showed an effect of 50% or more. The effect is printed as a negative number. Some of the results follow.
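Also: peak tail current of the secondary pulse compared with the same well before compound.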

In this test the target is human ether-à-go-go-related gene (hERG) potassium channel (human, UniProt Q12809). In words: primary screen, population patch clamp on CHO cells stably expressing hERG.
Chain of human ether-à-go-go-related gene (hERG) potassium channel (Q12809 whole entry, looked up): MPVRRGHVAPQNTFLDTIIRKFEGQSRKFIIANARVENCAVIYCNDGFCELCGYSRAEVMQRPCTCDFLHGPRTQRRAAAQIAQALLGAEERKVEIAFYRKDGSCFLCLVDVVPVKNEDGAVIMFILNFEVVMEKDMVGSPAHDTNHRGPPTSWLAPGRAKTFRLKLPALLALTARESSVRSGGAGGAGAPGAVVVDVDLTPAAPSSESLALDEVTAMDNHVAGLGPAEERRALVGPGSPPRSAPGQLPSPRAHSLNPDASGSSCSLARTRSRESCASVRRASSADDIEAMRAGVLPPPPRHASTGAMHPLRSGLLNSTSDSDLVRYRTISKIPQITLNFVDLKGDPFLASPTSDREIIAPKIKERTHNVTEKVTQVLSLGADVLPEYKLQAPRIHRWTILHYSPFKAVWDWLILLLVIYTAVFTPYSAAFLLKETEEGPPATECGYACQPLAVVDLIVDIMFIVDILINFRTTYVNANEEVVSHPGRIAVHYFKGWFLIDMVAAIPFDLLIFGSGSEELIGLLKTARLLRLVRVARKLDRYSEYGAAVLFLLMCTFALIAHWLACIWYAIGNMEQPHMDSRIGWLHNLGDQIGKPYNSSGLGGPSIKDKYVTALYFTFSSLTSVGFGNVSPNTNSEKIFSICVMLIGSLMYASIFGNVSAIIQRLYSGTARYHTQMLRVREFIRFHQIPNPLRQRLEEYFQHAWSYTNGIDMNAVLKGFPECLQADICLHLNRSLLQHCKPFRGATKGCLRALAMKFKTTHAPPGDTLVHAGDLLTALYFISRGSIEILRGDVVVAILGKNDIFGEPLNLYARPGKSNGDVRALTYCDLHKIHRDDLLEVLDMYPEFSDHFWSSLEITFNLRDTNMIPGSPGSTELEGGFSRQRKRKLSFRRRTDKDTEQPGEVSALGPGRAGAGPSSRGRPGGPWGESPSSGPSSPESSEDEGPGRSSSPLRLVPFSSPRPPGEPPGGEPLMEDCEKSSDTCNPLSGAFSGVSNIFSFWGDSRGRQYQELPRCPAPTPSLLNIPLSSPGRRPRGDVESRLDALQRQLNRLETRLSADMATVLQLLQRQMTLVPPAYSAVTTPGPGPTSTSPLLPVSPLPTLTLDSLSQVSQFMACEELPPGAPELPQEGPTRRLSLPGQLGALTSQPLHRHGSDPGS
On to `CC1CN(c2nc3c(c(=O)[nH]c(=O)n3C)n2Cc2ccccc2F)CC(C)O1` (stereo not shown), for which the “hERG current change (%, negative = inhibition) at 10uM” value is recorded as -5.53%. Take `O=C(COC(=O)c1ccc(S(=O)(=O)C(F)F)cc1)NC(=O)NC1CCCCC1`: the “hERG current change (%, negative = inhibition) at 10uM” value was -18.5%. As for `COc1cc(NC(=S)NC(=O)c2ccc(C(C)(C)C)cc2)ccc1NC(=O)c1cccs1`, the figure is 25%; as for `Cc1ccc(C(=O)CNc2cccc(Cl)c2)cc1`, 10.6%; as for `CCN(CC)c1ccc(NC(=O)CCNC(=O)c2ccco2)cc1`, 18.5%.

For the compound `CC[C@@]12C(=O)N(c3cccc(Br)c3)C(=O)N1[C@H](c1ccc(F)cc1)[C@@H]1C(=O)N(C3CCCCC3)C(=O)[C@@H]12`, the “hERG current change (%, negative = inhibition) at 10uM” value came to 1.58%. For the compound `COc1ccc(NC(=O)/C(C#N)=C/c2cccnc2)c(OC)c1`, the “hERG current change (%, negative = inhibition) at 10uM” value is on record as 13.9%. As for `O=C(O)CSc1nc2c(c(C(F)(F)F)n1)CCc1ccccc1-2`, the figure is 23.1%. As for `CCSc1nc(O)c(Cc2ccccc2)c(=O)[nH]1`, the figure is -2.17%; as for `Cc1ccnc(NC(=O)CCC(=O)N(CC(=O)NCc2ccc(F)cc2)Cc2ccco2)c1`, -30.6%; as for `CCCN1C(=O)c2cc(C(=O)O)ccc2C1O` (stereo not shown), 12%. `CCO[C@@H]1OC(C(=O)NC2CC2)=C[C@H](c2ccc3c(c2)OCO3)[C@H]1CCCO`: the “hERG current change (%, negative = inhibition) at 10uM” value stood at 7.22%. For the compound `O=C(Nc1sc2c(c1C(=O)O)CCC2)c1ccccc1F`, the “hERG current change (%, negative = inhibition) at 10uM” value came to 10.7%. Take `COCc1cc(C)n(CC(=O)Nc2c(C)cccc2C)c(=O)c1C#N`: the “hERG current change (%, negative = inhibition) at 10uM” value is given as -2.06%. Take `COc1ccc(-c2nn(-c3ccccc3)cc2CNCc2cccnc2)c(F)c1`: the “hERG current change (%, negative = inhibition) at 10uM” value was -28.1%. For `CCOC(=O)NC(=O)/C(N=Nc1cccc(C(F)(F)F)c1)=C(\C)O`, the “hERG current change (%, negative = inhibition) at 10uM” value amounted to 6.35%. Turning to `CN1CCN(S(=O)(=O)c2ccc3c(c2)OCCO3)CC1`, the “hERG current change (%, negative = inhibition) at 10uM” value worked out at 12.1%. `O=C(CSc1nc2cc([N+](=O)[O-])ccc2n1-c1ccc(F)cc1)NC1CCS(=O)(=O)C1` (stereo not shown): the “hERG current change (%, negative = inhibition) at 10uM” value is -52.6%.

Take `COc1ccc(C(=O)N2CC3(C)CC2CC(C)(C)C3)cc1` (stereo not shown): the “hERG current change (%, negative = inhibition) at 10uM” value amounted to 0.128%.

For the compound `CCc1nn(C(C)C(=O)N2CC(C)CC(C)C2)c(=O)c2cc3occc3n12` (stereo not shown), the “hERG current change (%, negative = inhibition) at 10uM” value is -7.58%. As for `Cc1cccc(C(=O)N2CCc3c([nH]c4ccccc34)C2CC(C)C)n1` (stereo not shown), the figure is 3.99%; as for `c1ccc2sc(N3CCN(Cc4nnnn4CC4CCCO4)CC3)nc2c1` (stereo not shown), -18.2%.

For `CCOCCCNC(=O)c1cn(C)c2ccc(S(=O)(=O)N3CCCC3)cc2c1=O`, the “hERG current change (%, negative = inhibition) at 10uM” value is 8.58%. As for `S=C(NCCCn1ccnc1)Nc1ccc(Cl)cc1Cl`, the figure is -7.65%; as for `CCCC(=O)Nc1ccc(N2CCN(C(=O)c3ccccc3C)CC2)cc1`, -16.6%. As to `CCOc1ccc(-n2c(SCC(=O)Nc3cc(C(=O)O)ccc3Cl)nc3ccccc3c2=O)cc1`, the “hERG current change (%, negative = inhibition) at 10uM” value was found to be 28.8%. Turning to `COCc1cc(C)nc(SCC(=O)Nc2ccccc2N2CCOCC2)c1C#N`, the “hERG current change (%, negative = inhibition) at 10uM” value was -0.0594%. As for `CN1C(=O)SC(Nc2ccccc2C(=O)O)C1=O` (stereo not shown), the figure is 4.32%; as for `CCOC(=O)c1cnn(-c2ccccc2)c1NC(=O)c1ccccc1`, 2.12%; as for `O=C(NCc1cccs1)c1ccc([N+](=O)[O-])cc1`, -31.2%.

On to `CC(C)c1ccc(OCC(=O)Nc2cccc3c2CCCC3)cc1`, for which the “hERG current change (%, negative = inhibition) at 10uM” value is 0.81%.

On to `O=C(CSC1CCCCC1)Nc1nccs1`, for which the “hERG current change (%, negative = inhibition) at 10uM” value is -4.39%.

Take `CS(=O)(=O)c1ccc(Cl)c(NC(=O)Cc2c(F)cccc2Cl)c1`: the “hERG current change (%, negative = inhibition) at 10uM” value came out at 31.9%. As for `O=C1CC(=O)N(Cc2ccccc2)C(=S)N1`, the figure is 10.6%; as for `O=C(NC1CCCCC1)c1ccc(CNc2nc(=S)[nH]c3ccccc23)cc1`, 5.52%. Then `O=C(c1ccc(F)cc1)N1CCN(c2ccc([N+](=O)[O-])c(N3CCOCC3)c2)CC1`, with -58.3%; and `O=C(O)Cn1cc(C(=O)c2ccco2)c2ccccc21`, with 18.6%; and `CCC(=O)NS(=O)(=O)c1cccnc1Nc1ccc(Cl)cc1`, with 13.9%. Consider `CCOC(=O)c1c(C)[nH]c(N=Nc2cccc(C)c2)c1C`, for which the “hERG current change (%, negative = inhibition) at 10uM” value turned out to be 0.74%. Then `CCCCOC(=O)COc1ccc(Cl)cc1Cl`, with 13.3%; and `COc1ccc(N=C(C)C2=C(O)c3ccccc3C2=O)cc1`, with 2.67%; and `Cc1cccc(NC(NC(=O)c2ccccn2)C(Cl)(Cl)Cl)c1` (stereo not shown), with -38.3%. Then `COc1ccc(C(=O)NCc2nnc(SCC(=O)N3CCOCC3)o2)cc1`, with 13.5%. As for `O=C(Nc1ccccc1C(=O)NCCCN1CCOCC1)c1ccc(Cl)cc1`, the figure is -15.5%. With `COc1cccc(C(C(=O)NC(C)(C)C)N(C(=O)CCC(=O)Nc2cc(C)on2)C(C)C)c1OC` (stereo not shown), the “hERG current change (%, negative = inhibition) at 10uM” value is 17.1%. Then `O=C(O)c1ccccc1NC(=O)c1cc2ccccc2oc1=O`, with 19.1%; and `COc1cccc(NC(=O)Cn2cc3c(n2)CCCCC3)c1`, with -14.7%; and `O=C(Cn1c(COc2ccccc2)nc2ccccc21)Nc1cc(Cl)cc(Cl)c1`, with 29.3%. As for `COc1ccc(CNC(=O)Cn2nc(C(F)(F)F)cc2C)cc1`, the figure is 6.77%. As for `CSCCC(NC(=O)c1ccco1)C(=O)OCC(=O)N(Cc1ccccc1)C(C)(C)C` (stereo not shown), the figure is -31.1%. For `Cc1ccccc1CSCCNC(=S)Nc1ccccc1`, the “hERG current change (%, negative = inhibition) at 10uM” value worked out at 11.2%. Regarding `CCc1nc(N2CCN(C(=O)c3ccco3)CC2)c2c3c(sc2n1)CCCC3`, the “hERG current change (%, negative = inhibition) at 10uM” value is on record as -65.3%. Regarding `COCCN(Cc1ccccc1)C(=O)c1ccc(C(=O)c2ccccc2)cc1`, the “hERG current change (%, negative = inhibition) at 10uM” value is -21.8%. As for `COc1ccccc1N1CCN(C(=O)C(Sc2ccccc2)c2ccccc2)CC1` (stereo not shown), the figure is -6.52%; as for `O=C(Nc1ccc2c(c1)OCO2)N1CCOCC1`, -3.44%; as for `O=C(c1cccc(C(F)(F)F)c1)N1CCOC12CCN(c1ncc(C(F)(F)F)cc1Cl)CC2`, 18.9%. As for `O=C(COC(=O)C1CCN(S(=O)(=O)c2ccc3c(c2)OCCO3)CC1)Nc1cc(C(F)(F)F)ccc1Cl`, the figure is -11.7%; as for `Cc1ccccc1OCc1nnc2n1CC(C)S2` (stereo not shown), 7.43%; as for `CC1(C)NC(=O)N(CCOCCOc2ccccc2-c2ccccc2)C1=O`, -14.7%. Take `CC1=N/C(=C\c2ccc(OC(C)C)cc2)C(=O)N1c1ccc(C(=O)O)cc1`: the “hERG current change (%, negative = inhibition) at 10uM” value was found to be 12.4%. In the case of `CCC(=O)C1CCCN(C(=O)CCc2nnc(C3(c4ccc(Cl)cc4)CCC3)o2)C1` (stereo not shown), the “hERG current change (%, negative = inhibition) at 10uM” value is given as -38.5%. As for `COc1ccc2c(c1)[C@H]1[C@H](CO2)[C@H](c2ccccc2)[C@]2(C)C(=O)Nc3cc(OC)c(OC)cc3C(=O)N12`, the figure is 8.37%; as for `CC1(CCC(=O)N2CCCC(N3CCN(c4ccc(F)cc4)CC3)C2)CC1` (stereo not shown), -64.7%. As for `CC(=O)c1cc(CN2CCN(CCC(C)C)C(CCO)C2)cs1` (stereo not shown), the figure is -5.53%; as for `COC(=O)c1c(C)[nH]c(C)c1-c1ccccc1`, -5.37%; as for `CCOC(=O)c1ccc(CC2SC(N)=NC2=O)cc1` (stereo not shown), 2.63%. Take `CSc1ccc(Cl)c(C(=O)Nc2ccc(Cl)cn2)c1`: the “hERG current change (%, negative = inhibition) at 10uM” value amounted to 1.42%. Then `COC(=O)c1cc(Cl)cc(Cl)c1OS(=O)(=O)N(C)C`, with -21.3%. As for `CCOC(=O)C1(Cc2ccccc2Cl)CCN(C(=O)CN2CCOC2=O)CC1`, the figure is 8.88%. Then `CCCNS(=O)(=O)c1cc2c3c(c1)C(C)C(=O)N3CCC2` (stereo not shown), with 5.95%; and `O=C(CNC(=O)C(c1ccccc1)c1ccccc1)N/N=C/c1ccc(O)c([N+](=O)[O-])c1`, with -4.11%; and `O=c1sc2ccccc2c(N2CCOCC2)c1[N+](=O)[O-]`, with 20.9%. For the compound `O=C(O)c1ccccc1C(=O)OCc1ccccc1`, the “hERG current change (%, negative = inhibition) at 10uM” value was determined as 10.7%. As for `COc1ccccc1CCC(=O)OCC(=O)Nc1ccc(C(N)=O)cc1`, the figure is 12.3%. Then `O=C(COC(=O)CC1CCCC1)Nc1cc2c(cc1Cl)C(=O)c1ccccc1C2=O`, with -6.56%; and `Cc1cc(C)c(-c2cc(C)nc3ncnn23)c(C)c1`, with 7.75%; and `O=C(O)c1cccc2c1C(=O)c1ccccc1C2=O`, with 19.7%.

As for `Cc1ccc(C2=NN(CC(=O)NCCN(CC(C)C)CC(C)C)C(=O)CC2)cc1`, the “hERG current change (%, negative = inhibition) at 10uM” value is given as -50.2%. Then `Cc1ccc(S(=O)(=O)n2ccc(-c3ccc(OCc4c(F)cccc4Cl)cc3)n2)cc1`, with 14.9%.

`O=C(CC1C(=O)NCCN1C1CCCC1)NCc1cccc(OC(F)(F)F)c1` (stereo not shown): the “hERG current change (%, negative = inhibition) at 10uM” value is on record as -21.1%. As for `O=S(=O)(c1ccc2oc3ccccc3c2c1)N1CCCC1`, the figure is 5.64%. Then `Cc1ccc(S(=O)(=O)NCCNC(C)c2ccc(Br)cc2)cc1` (stereo not shown), with -42.5%; and `COc1ccc(NC(=O)CN(C)C(=O)c2oc3ccccc3c2C)cc1`, with -14.3%. As for `N#CCc1cc2ccc3cccc4ccc(c1)c2c34`, the figure is 16.2%.

For `CCc1ccc(NC(=O)CSc2nc(=O)n(CCCN3CCOCC3)c3c2CCC3)cc1`, the “hERG current change (%, negative = inhibition) at 10uM” value was -40%. As for `Cc1ccccc1NS(=O)(=O)c1ccc(C(=O)NCC(c2ccco2)N2CCCCC2)cc1` (stereo not shown), the figure is 5.89%. With `CCCc1cc(=O)oc2cc(C)cc(OCC(=O)N[C@@H](CSCc3ccccc3)C(=O)O)c12`, the “hERG current change (%, negative = inhibition) at 10uM” value was -6.2%. As for `O=C(Cn1cnc2nc3n(c2c1=O)CCC3)NCc1ccccc1`, the figure is -3.68%.
